Data reported in PubChem BioAssay AID1508624 (National Center for Advancing Translational Sciences (NCATS), 2021).
The whole screen tested about 48,000 compounds, of which about 120 (0.25%) were called active. Inconclusive results (about 4%) are left out. Calls come from the whole dose curve; as a rule, active = well fitted activation curve with a large enough effect; inconclusive = small, poorly fitted or top-dose-only effect, or another doubt; inactive = no such curve, though single readings can be large or run the other way. This is one part of the list.

Experiment: Primary qHTS for Identification of Small Molecule Activators of Huntingtin-Antisense Promoter Activity; note: nearly all actives have a fitted effect of over 55% in size
Settings: HEK293 HTT-AS promoter firefly luciferase reporter (activity 0% = vehicle and -100% = no light), 24 h; series mostly up to 57.5 µM; activity change, positive = activation: at the top concentration
In short: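 Firefly luciferase readout (Dual-Glo, 10 min RT) after 24 h, 37 °C compound exposure (final up to 57.5 uM) of HEK293 reporter cells cultured 24 h beforehand; PTC124 at 50 uM final as control inhibitor; activity scaled vehicle 0%, zero RLU -100%.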

Activity change, positive = activation, inactive:
Cc1ccc(CCNC(=O)CCCn2c(=O)c3cccn3c3ccc(F)cc32)cc1 -24.2%
CCn1c(=O)c2sccc2n2c(CCCC(=O)Nc3ccc(Oc4ccccc4)cc3)nnc12 -8.75%
CCOc1ccccc1CNC(=O)CN1C(=O)c2cccnc2Oc2ccc(C)cc21 -24.8%
O=C(Nc1ccc(Br)cc1)c1cc(S(=O)(=O)N2CCc3ccccc32)ccc1F -34.2%
NCC(=O)CCC(=O)O 4.68%
N[C@H](CSC(c1ccccc1)(c1ccccc1)c1ccccc1)C(=O)O -22.4%
CCC(C(=O)O)C1CCC(C)C(C(C)C(O)C(C)C(=O)C(CC)C2OC3(C=CC(O)[C@@]4(CC[C@](C)(C5CC[C@@](O)(CC)C(C)O5)O4)O3)C(C)CC2C)O1 (stereo partly specified) -92.3%
COc1ccc(OC)c(NC(=O)N2CCC3(CC2)Oc2ccccc2C(=O)N3Cc2ccccc2F)c1 -19%
CCCCN(C)C(=O)c1ccc2c(c1)NC(=O)C(CC(C)C)N2 (stereo unspecified) -1.16%
COc1ccc(-c2noc(CC(=O)N(C)c3cc(Cl)c(OC)cc3OC)n2)cc1 -27.4%
CCN1C(=O)C2(c3ccccc31)c1c(oc3ccccc3c1=O)C(=O)N2CCOC (stereo unspecified) -7.99%
Cc1ccc(NC(=O)c2nc(S(C)(=O)=O)ncc2N(Cc2ccco2)Cc2ccco2)cc1 -20.7%
Cc1ccc(-c2nc(-c3cccs3)c(-c3cccs3)[nH]2)cc1 -30.4%
Cc1ccc(OCCSc2nc3ccccc3n2CCC(=O)O)cc1 -5.49%
CN(Cc1ccccc1)c1nc2c(S(=O)(=O)c3ccccc3)nnn2c2ccsc12 -4.23%
Cc1ccc(S(=O)(=O)c2nnn3c2nc(NC2CCCCC2)c2sccc23)cc1C -41.7%
Cc1cc(C)cc(OCC(=O)N(Cc2ccco2)Cc2ccccc2Cl)c1 -39.3%
CN(C)S(=O)(=O)N(CC(=O)NCCSCc1ccc(Cl)cc1Cl)c1ccccc1 -34.5%
CSc1ccc(CCNC(=O)C2CCCN(S(=O)(=O)N(C)c3ccc(F)cc3)C2)cc1 (stereo unspecified) -24.2%
COc1ccc(CN(CCN(C)C)c2ncccn2)cc1 -12.6%
COc1ccc(NC(=O)CN2C(=O)C(c3ccccc3)=NC23CCC(C)CC3)cc1Cl (stereo unspecified) -34%
COc1ccc(-n2ccnc(NCCc3ccc(S(N)(=O)=O)cc3)c2=O)cc1Cl -23.7%
CC(C)c1ccc(NC(=O)c2cc(S(=O)(=O)NCCc3ccccc3)ccc2F)cc1 -33.4%
Cc1cccn2c(=O)cc(COc3cccc(NC(=O)Nc4cccc(Cl)c4)c3)nc12 -7.32%
O=C1Cc2cc(S(=O)(=O)Nc3cccc(C(F)(F)F)c3)cc3c2N1CCC3 -21.5%
COc1ccc(C(C)C)cc1S(=O)(=O)NCCc1c(C)[nH]c2c(Cl)cccc12 -44.8%
C[C@H](NC(=O)OC(C)(C)C)c1nnc(SCc2ccc(Cl)cc2Cl)o1 -33.4%
COc1cc2[nH]c(=O)n(CCCC(=O)N(C)Cc3ccccc3)c(=O)c2cc1OC -36%
CCOC(=O)c1ccc(N2C(=O)c3n[nH]c(C)c3C2c2ccc(CC)cc2)cc1 (stereo unspecified) -21.7%
CCc1ccccc1NC(=O)Cn1nc(C)c2nn(-c3ccc(Cl)cc3)c(C)c2c1=O -40.8%
Cc1ccc(NC(=O)Cn2cc(S(=O)(=O)Cc3ccccc3)c3ccccc32)cc1C -25.6%
COC(=O)c1cc2occc2n1Cc1nc(-c2ccc(Cl)cc2)oc1C 16%
CCc1ccc(S(=O)(=O)c2cn(C)c3ccc(C)cc3c2=O)cc1 -20%
Cc1ccc(-n2nc(C(=O)N(C)c3ccccc3Cl)c3c4ccccc4n(C)c3c2=O)cc1 -5.2%
CCOCCCNC(=O)CN1C(=O)CCn2nc(-c3cccn3C)cc21 -2.48%
CCS(=O)(=O)c1nc(S(=O)(=O)c2ccc(Cl)cc2)c(NCc2ccc(Cl)cc2)s1 -30%
CCOC(=O)c1[nH]c(C)c(CCC(=O)N2CCN(c3ccc(Cl)cc3)CC2)c1C -29.1%
COc1ccc(-c2ccc(=O)n(CC(=O)Nc3ccc(Br)cc3F)n2)cc1 -17.2%
Cn1c(=O)c2c(-c3ccccc3)n(-c3cccc(C#N)c3)cc2n(C)c1=O -16.1%
O=C(O)c1ccc(Nc2ncnc3scc(-c4ccccc4)c23)cc1 8.27%
CCc1ccc2nc(N(Cc3cccnc3)C(=O)Cc3ccccc3)sc2c1 -24.3%
COc1ccc(Cc2c(C)nn(-c3nc(C)c(C(=O)Nc4cccc(C(C)=O)c4)s3)c2C)cc1 -35%
CCC(C(=O)NCc1ccccc1Cl)n1c(=O)c2cccn2c2ccccc21 (stereo unspecified) -22.5%
Cc1cc2c(OCC(CNC(C)(C)C)OC(=O)c3ccccc3)cccc2[nH]1 (stereo unspecified) -6.24%
Cc1ccc2c(c1)N(C(=O)c1ccc(F)cc1)C(C)(C)CC2(C)c1ccccc1 (stereo unspecified) -28.7%
COC(=O)c1cc(OC)c(OC)cc1NC(=O)c1ccc2c(c1)CCN2S(C)(=O)=O 5.6%
CCc1ccccc1N1C(=O)N(Cc2cc(=O)n3ccccc3n2)c2ccccc2S1(=O)=O -33.4%
O=C(NCc1ccccc1)c1c2c(nc3ccccc13)C(=O)N(C1CCCCC1)C2 -9.13%
CC(C)c1ccc(NC(=O)[C@H]2O[C@@H]3OC(C)(C)O[C@@H]3[C@H]3OC(C)(C)O[C@H]32)cc1 2.85%
Cc1nn(CC(=O)N2CCN(c3ccccc3F)CC2)c(=O)c2cccn12 -6.8%
CCN(CC)c1ccc2nc3c(=O)n(C)c(=O)n(C)c3nc2c1 2.62%
Cc1cc(OC(C)C(=O)N(Cc2ccco2)Cc2ccco2)cc(C)c1Cl (stereo unspecified) -44.9%
COc1cc(C=CC(=O)O)ccc1O -11.6%
CCn1nc(C)c(CCN(C)C(=O)Nc2cc(Cl)c(OC)cc2OC)c1C -0.211%
O=C(CSc1oc(-c2ccc(F)cc2)nc1S(=O)(=O)c1ccccc1)c1ccc(Cl)cc1 -17.8%
CCN(Cc1ccccc1)C(=O)Cn1c(=O)cc(C)c2c(C)nn(-c3cccc(F)c3)c21 -10.1%
CCOc1ccc(-c2nnc(SCC(=O)NC3CCCCC3)nc2-c2ccc(OCC)c(OC)c2)cc1OC 12.7%
CC(C)c1ccc(NC(=O)C2CCC(CNS(=O)(=O)c3ccc4c(c3)CCCC(=O)N4)CC2)cc1 (stereo unspecified) -50.4%
CCN1C(=O)c2ccccc2S(=O)(=O)c2ccc(C(=O)NCc3ccc(C)cc3)cc21 -22%
COc1ccc(CNC(=O)CCn2c(=O)c3cccn3c3ccc(F)cc32)cc1OC -16.7%
CCc1ccc2occ(CC(=O)Nc3nnc(SC)s3)c2c1 -17.2%
CC(=O)CC(c1ccc([N+](=O)[O-])cc1)c1c(O)c2ccccc2oc1=O (stereo unspecified) -27.8%
COc1cccc2c1Oc1ncccc1N(C(=O)Nc1cccc(Cl)c1)C2 -11.7%
Cn1nc(-c2ccc(C(=O)Nc3cccc(C(F)(F)F)c3)cc2)c2ccccc2c1=O -9.34%
CCCCC(=O)OC1=C(C(=O)c2ccccc2)N(C)S(=O)(=O)c2ccccc21 -16%
CCCCCCCCNC(C)C(O)c1ccc(SC(C)C)cc1 (stereo unspecified) -13.9%
O=C(Nc1ccc(F)cc1F)c1cnn(-c2ccc(F)cc2)c1-n1cccc1 -8.99%
Cc1ccc(CNC(=O)c2cc(S(=O)(=O)N3CCCCCC3)cn2C)cc1 -22.9%
CCOc1ccccc1NC(=O)CN1c2ccccc2S(=O)(=O)c2ccccc21 -20.4%
COc1ccc(CNS(=O)(=O)c2cnc(N)nc2)cc1 -3.42%
Cc1cccc(CNC(=O)c2ccc3c(c2)N(C)C(=O)C2CCCCN32)c1 (stereo unspecified) -24.8%
COc1ccc(Cn2ccc3nc(C)c(C(=O)Nc4ccc(OC(F)(F)F)cc4)cc3c2=O)cc1 -32.9%
CCCCC(=O)OC1=C(C(=O)c2ccccc2)N(CC)S(=O)(=O)c2ccccc21 -26.2%
CSc1ccc(CNC(=O)c2cc3cc(S(=O)(=O)N4CCCCC4)ccc3n2C)cc1 -37.3%
O=C(Nc1cccc(-c2nc3ccccc3o2)c1)c1cccc(Br)c1 -7.25%
CCOC(=O)c1c(Nc2cc(C)cc(C)c2)nnc(-c2ccccc2)c1-c1ccccc1 -24.9%
COc1cccc(CNC(=O)C2CCN(S(=O)(=O)N3CCC(C)CC3)CC2)c1 -29.3%
CC1CCN(S(=O)(=O)c2ccc3nc(Nc4ccc(C#N)cc4)ccc3c2)CC1 -42.2%
COc1ccccc1CNS(=O)(=O)c1ccc(F)c(C(=O)Nc2cc(Cl)ccc2OC)c1 -33.3%
O=C(NCC(c1cccnc1)N1CCc2ccccc2C1)C(=O)Nc1ccccc1 (stereo unspecified) -3.22%
COc1ccccc1N1CCN(S(=O)(=O)c2c(C)nc3sc(C)c(C)n3c2=O)CC1 -17.9%
CC1Cc2cc(S(=O)(=O)N(C)c3ccc(Br)cc3)ccc2N1C(=O)C1CC1 (stereo unspecified) -32.3%
COc1ccc(NC(=O)C2CCCN(S(=O)(=O)c3cccs3)C2)cc1 (stereo unspecified) -16.9%
CCC1CCCCN1CCCNC(=O)c1cc2c(=O)n(CC)c3ccccc3c2s1 (stereo unspecified) -10.2%
CCN1CCN(C(c2ccccc2)c2c(O)cc(C)n(Cc3ccco3)c2=O)CC1 (stereo unspecified) 1.54%
COc1ccc(CNC(=O)C2CCN(S(=O)(=O)c3ccc(C)cc3)CC2)cc1 -2.78%
N#C/C(=C/c1ccc(Cl)cc1Cl)c1nc2ccccc2c(=O)[nH]1 -8.4%
COC(=O)c1c(N)n(-c2ccc(OC)c(Cl)c2)c2nc3ccccc3nc12 -5.93%
COc1ccc(-c2nnc3c4ccccc4c(-c4ccccc4)nn23)cc1 -8.36%
CCOc1ccc(CCNC(=O)c2cccc(-n3c(C)nc4cccnc43)c2)cc1 -31.1%
O=C(Nc1ccccc1F)c1ccc(-c2ccccc2)s1 22.3%
CCN(CC)C(=O)c1sc2c(c1C)c(=O)n(-c1ccc(Cl)c(Cl)c1)c(=O)n2CC(=O)Nc1cccc(OC)c1 -30.9%
CCOC(=O)c1nnn(CC(=O)NC(=O)Nc2cccc(CC)c2)c1C(=O)OCC -20.1%
O=C(COc1ccc(Cl)cc1)NCCc1csc(-c2ccc(F)cc2)n1 -23.3%
Cc1nn(C)c(C)c1S(=O)(=O)N(CC(=O)N1CCN(c2ccccc2)CC1)c1ccc(C(C)C)cc1 -6.68%
CCOc1ccccc1NC(=O)C1CCN(S(=O)(=O)c2ccc3[nH]c4c(c3c2)CCCCC4)CC1 -20%
